# Results from the supplement of paper PMC3334620.
# The full ranking holds about 33,000 sequences; the median of “E-score (-0.5 to 0.5)” is about -0.035, and the highest 2% start at about 0.34. This is one part of the list.
# Biological target: T1, Mot3 (UniProt P54785)
# T1 sequence: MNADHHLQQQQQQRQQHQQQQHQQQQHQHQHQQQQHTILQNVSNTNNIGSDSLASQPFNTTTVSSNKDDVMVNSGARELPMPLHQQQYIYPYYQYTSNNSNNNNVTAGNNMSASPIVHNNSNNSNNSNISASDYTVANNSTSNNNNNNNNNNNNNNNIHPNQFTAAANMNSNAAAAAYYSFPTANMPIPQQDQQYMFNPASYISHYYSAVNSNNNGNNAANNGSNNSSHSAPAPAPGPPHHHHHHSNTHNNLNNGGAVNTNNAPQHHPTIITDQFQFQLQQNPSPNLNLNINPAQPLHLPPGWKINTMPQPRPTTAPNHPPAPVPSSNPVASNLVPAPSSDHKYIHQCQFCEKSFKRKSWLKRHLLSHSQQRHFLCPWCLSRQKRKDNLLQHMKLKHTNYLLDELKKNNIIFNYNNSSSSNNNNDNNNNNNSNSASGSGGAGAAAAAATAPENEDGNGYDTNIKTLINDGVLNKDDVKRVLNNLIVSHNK
# Experiment: PBM E-score (8-mer binding enrichment) (E-score (-0.5 to 0.5)); higher = stronger / more preferred TF binding; most listed sequences are background and not binding sites
# Conditions: protein concentration: 200 nM; construct: GST-full length
# Summary of the method: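 Masliner-normalised scans of fluorescent anti-GST signal were the basis for scoring. That signal came from GST-tagged yeast transcription factors applied at about 100-200 nM to double-stranded universal all-10-mer Agilent arrays on fresh or once-stripped slides. Each ungapped eight-base word, pooled with its reverse complement, received an E-score from the Universal PBM Analysis Suite.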
row,Sequence,PBM E-score
1,AGCCTGGA,-0.277
2,GAACGAAC,-0.0739
3,AAAGTCCA,-0.091
4,ATATAGAA,0.11
5,GTAGACTA,-0.0363
6,AGGGTCAG,-0.207
7,AGACAGAC,0.00927
8,CTCAACTA,0.0353
9,GACATTAC,0.133
10,AGGCCGAA,-0.138
11,ATGATGAA,0.0122
12,GGCGATAA,-0.239
13,CACATCCC,-0.0312
14,AGAAGCAG,-0.0902
15,CATAGTGG,-0.0206
16,AGATCGTC,-0.179
17,TATCGCGA,-0.0761
18,ACCAACTG,-0.14
19,ACAAGGTG,0.135
20,GACGAGGA,-0.0975
21,CTCTGGTA,-0.106
22,AGCCGTGG,-0.137
23,GATACAAC,0.0758
24,ATTTACGG,0.132
25,GACTCAAC,0.0921

row,Sequence,PBM E-score
1,ATTTTGAA,-0.00196
2,AGCAGATA,-0.23
3,CTTGCATA,-0.0488
4,CACCGTCG,-0.113
5,TGCATGAA,0.0432
6,CCACTAAC,0.0767
7,CCATTTAC,0.204
8,ATTTAGCC,0.00989
9,ACCCAGCG,-0.0802
10,AAGGGATT,-0.123
11,ACTGAGGA,-0.0208
12,AAAGAGGT,0.0391
13,ACCACTAT,-0.121
14,CGGCACGC,-0.0562
15,TAGCGGAA,-0.15
16,ATCCACTG,-0.103
17,ACAGCTAG,-0.0713
18,ACCTTGCT,-0.0444
19,ATATGGAT,0.0348
20,CTGTCTTC,-0.161
21,CAAAGCAC,-0.122
22,ACTTCGGG,-0.134
23,AAAGTCCC,-0.165
24,GGGGATCA,-0.33
25,GATAGAGC,-0.0653

row,Sequence,PBM E-score
1,CGTGGGAA,-0.208
2,GTATTAAC,0.303
3,TGCCAAAA,-0.0739
4,AAAGTTCA,0.0418
5,ACTTTACG,0.138
6,AAATTATT,0.111
7,AAGTAGAC,-0.161
8,CCCGAATA,-0.0992
9,GGGCTTGA,-0.21
10,CCAATTGC,-0.0845
11,ACACAGGG,0.213
12,TTCAACAA,0.229
13,CCAACTAG,0.0134
14,GCCGAACA,-0.0546
15,CATGGCAA,-0.0714
16,AACCTGAA,-0.0539
17,TGCTGTAA,0.176
18,CAAGACGA,0.00326
19,CTGGCGGC,-0.179
20,ACGTTGAT,0.203
21,AGTGTGCA,0.0627
22,GTAGCGTA,0.105
23,ATCGCTCA,-0.264
24,ATTCGATG,-0.0704
25,ATGACATA,0.197

row,Sequence,PBM E-score
1,CCGACCGG,-0.28
2,CGATGCAA,-0.2
3,ATTTGAGC,-0.0824
4,ACAGCCCA,-0.0365
5,CATAGGTA,0.227
6,AAGAACAC,0.213
7,AAATTGTG,0.119
8,AAGGCTGA,-0.222
9,ACCGAACT,-0.17
10,CTGGTTTC,-0.18
11,AGCACAAC,0.183
12,AGATGCAG,-0.0299
13,AATTATCT,-0.0807
14,CTCTTATA,-0.039
15,TCAATGGA,-0.13
16,ATACTTTG,-0.0228
17,GGTCGTGA,-0.173
18,GAGAACCC,-0.275
19,GACCCCAC,-0.0508
20,ACCTGACC,-0.112
21,AAAAACAC,0.231
22,CAGTGCAC,-0.168
23,GACGCCTA,0.0222
24,CCAGTGAA,-0.0706
25,CCGCGGCG,-0.253

row,Sequence,PBM E-score
1,ACTTCATC,-0.234
2,GAAGGTAC,0.438
3,AGGTCGTG,0.0505
4,CGATTGTC,0.0508
5,CAAAAGCC,-0.0126
6,AATACAGC,0.0486
7,CTGATCGA,-0.258
8,TCCCCAAA,0.043
9,CACGCTGA,0.0122
10,CAGCGCAG,-0.0869
11,CAAGACCC,0.0564
12,AAGACTCG,-0.193
13,CTGCATAA,0.0625
14,AAAGCCTT,-0.122
15,CGTGATAA,0.0869
16,GAGGCCAC,-0.0216
17,AGTTCACC,-0.0303
18,GTTTGGTA,0.00728
19,CCTCACAG,-0.131
20,ATTCTTCG,0.0141
21,CAATGATA,-0.0592
22,AGGCCACA,0.142
23,ATCCCTCG,-0.225
24,AGGTAATA,0.318
25,GTGGCCCA,-0.262

row,Sequence,PBM E-score
1,CGTTTTCA,0.216
2,GTGTTCGA,0.0206
3,AAACGTCC,-0.019
4,CCGCCCCG,-0.0988
5,ATAAAATA,0.141
6,CTGGTGGC,-0.263
7,CGCTAGTA,0.00136
8,GATGTCGC,-0.0384
9,CTCATACC,-0.11
10,GATTGGGA,-0.156
11,GCTCAAAC,-0.0243
12,GCGAGCAC,-0.228
13,AGTCGCAT,-0.0595
14,ATTATGAA,-0.0267
15,AATCTCAG,-0.103
16,GCTTCACA,0.0685
17,ACTTCTTG,-0.113
18,GAACGGTA,0.0291
19,AGGTGGAC,-0.183
20,GTTCCGCA,-0.0704
21,CGTGAATC,0.146
22,GGTCCAGA,-0.0101
23,ATCTTGAC,-0.15
24,AGGGGTTC,-0.0123
25,AATTGGCA,-0.121

row,Sequence,PBM E-score
1,CCAGTACA,0.208
2,CGCTCACG,-0.202
3,AAGTAGAT,0.0926
4,ACGATGCG,-0.014
5,GCGGCTAC,-0.116
6,CGTCTACC,-0.0996
7,ACTGCCTG,0.0753
8,ACGTGAAT,0.165
9,AACGTACG,0.0824
10,CCAGTGCC,0.0815
11,AGCCGTAT,0.0468
12,GACCGGCC,-0.394
13,ATTTTGCA,0.0729
14,GAGGCAGA,-0.164
15,CAATTAAC,0.155
16,CCCGCCGG,-0.202
17,ACGTAGTC,0.0571
18,CCGCGCAC,-0.0861
19,AATCAAAA,0.026
20,AAATTAGT,0.125
21,AAAAGCCG,-0.232
22,ACGCAGCC,0.0872
